Earlier results on 76 sequences are cited in article PMC11006913.

The other results are listed elsewhere or left out.

Conditions in all cases: PBM; conditions not shown; double strand, one strand shown; scale: upbm affinity estimate (log intensity, higher = more binding, comparable within an allelic series)
Series [1] deals with HOXD13 I297V (Homo sapiens) (UniProt P35453).
Series [2] addresses HOXD13 I322L (Homo sapiens) (UniProt P35453).
For series [3], the target named is HOXD13 N298S (Homo sapiens) (UniProt P35453).
Series [4] has as its target HOXD13 S316C (Homo sapiens) (UniProt P35453).
The target in series [5] is HOXD13 R306W (Homo sapiens) (UniProt P35453).
The target of series [6] is PROP1 R112Q (Homo sapiens) (UniProt O75360).
The target in series [7] is PROP1 R99Q (Homo sapiens) (UniProt O75360).
In series [8] the target is HOXD13 Q325R (Homo sapiens) (UniProt P35453).
In series [9] the target is HOXD13 Q325K (Homo sapiens) (UniProt P35453).
For the next series, the target named is ISX (Homo sapiens) (UniProt Q2M1V0).
In series [10] the target is PITX2 L100Q (Homo sapiens) (UniProt Q99697).
In series [11] the target is PITX2 R108H (Homo sapiens) (UniProt Q99697).
The target in series [12] is PITX2 R130W (Homo sapiens) (UniProt Q99697).
The target in series [13] is PITX2 T114P (Homo sapiens) (UniProt Q99697).

UniProt Q2M1V0, sequence (Q2M1V0 69-154): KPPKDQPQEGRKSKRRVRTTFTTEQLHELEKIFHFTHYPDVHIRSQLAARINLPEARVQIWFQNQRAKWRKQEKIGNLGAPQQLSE

Take GATGGTTA [8-mer GATGGTTA]: the binding signal is 11 in series [1], 10.8 in series [2], 11 in series [3] and 10.7 in series [4].
Turning to TCTATTAA [8-mer TCTATTAA], the binding signal is 12.3 in series [1] and 11.5 in [5].
On to AATTATAT [8-mer AATTATAT], for which the binding signal in series [1] was 12.3; in series [3] it was 12.4; in series [4], 12.1; in series [6], 12.6; in series [7], 12.
In the case of TAACGAGA [8-mer TAACGAGA], the binding signal in [2] was 12.1.
Take CACGTAAA [8-mer CACGTAAA]: the binding signal was 11.8 in [1]; 11.8 in series [2]; 11.9 in series [3]; 11 in series [8]; 10.8 in series [5]; 11.5 in series [4].
Turning to AGTTTACG [8-mer AGTTTACG], the binding signal in [1] is 11.7; in series [2], 11.8; in series [3], 11.8; in series [5], 10.9; in [4], 11.5.
For AATAACCC [8-mer AATAACCC], the binding signal in series [1] is 11.4; in series [3], 11.4; in [9], 11; in series [8] it was 11; in [5], 10.6; in series [4], 11.2.
Regarding TAGTAAAA [8-mer TAGTAAAA], in series [2], the binding signal is 12.
Turning to ATAATAAA [8-mer ATAATAAA], the binding signal in series [1] is 12.4; in [3], 12.5; in series [8] it was 12.1; in series [5], 11.7; in series [4], 12.3.
For AATACTAA [8-mer AATACTAA], the binding signal in series [1] is 10.9; in series [3], 10.9; in series [9], 10.9; in [8], 11.4; in [4] it was 10.7.
On to GTCACTAA [8-mer GTCACTAA], for which the binding signal in series [1] is 11; in [2], 10.7; in series [3], 11.1; in series [4] it was 10.8.
Take ATTTTACG [8-mer ATTTTACG]: in [2], the binding signal is 12.
With GGTAGTAA [8-mer GGTAGTAA], the binding signal was 11.1 in [1], 11 in [2], 11.2 in [3] and 11 in series [4].
For the sequence ATATTGGA [8-mer ATATTGGA], the binding signal in [1] is 11.2; in series [3], 11.3; in series [8], 10.8; in series [5], 10.6; in series [4] it was 11; in the series with ISX (Homo sapiens), 11.6.
Take CATAAAAA [8-mer CATAAAAA]: the binding signal in series [1] is 12.3; in [5], 11.6.
Turning to CGCGTAAA [8-mer CGCGTAAA], the binding signal in [2] is 12.
Regarding CTTATAAA [8-mer CTTATAAA], the binding signal in series [1] is 12.3; in series [9], 12.2; in [8] it was 12.1; in series [4] it was 12.1.
On to CTGTTAAA [8-mer CTGTTAAA], for which the binding signal in series [2] was 11.9.
As for ACTAACAA [8-mer ACTAACAA], the binding signal was 11.1 in [1]; 11 in series [2]; 11.2 in series [3]; 10.8 in series [8]; 10.8 in [4].
In the case of TCTTGTAA [8-mer TCTTGTAA], in series [2], the binding signal was 12.
Turning to ATGTATCG [8-mer ATGTATCG], the binding signal in [1] was 10.8; in series [3] it was 10.8; in [8] it was 10.8; in series [5] it was 10.5; in series [4], 10.7.
With AGGTAGTA [8-mer AGGTAGTA], the binding signal in [1] was 10.9; in series [2] it was 10.8; in [3], 10.9; in series [8], 11.1; in [5] it was 10.4; in [4], 10.8.
Regarding ATCGTAAC [8-mer ATCGTAAC], the binding signal in series [1] is 11.4; in series [2], 11.7; in series [3], 11.6; in series [4], 11.2.
AGTAGTTA [8-mer AGTAGTTA]: the binding signal in series [1] is 11.3; in [2], 11.1; in series [3] it was 11.4; in series [4], 11.1.
Consider CGTAAATC [8-mer CGTAAATC], for which the binding signal in series [2] was 12.
Regarding AATTTATA [8-mer AATTTATA], the binding signal in [1] was 12.4; in [3], 12.5; in [9], 12.4; in series [8] it was 12.2; in series [5], 11.9; in series [4], 12.2.
As for ATGTCTAA [8-mer ATGTCTAA], the binding signal was 10.6 in [1]; 11 in series [3]; 10.8 in series [9]; 11.3 in [8]; 10.4 in series [5]; 10.6 in series [4].
With CATAAATC [8-mer CATAAATC], the binding signal in series [5] is 11.5.
In the case of TATTAAAA [8-mer TATTAAAA], in [5], the binding signal is 11.7.
For the sequence GGCATTAA [8-mer GGCATTAA], the binding signal in [9] is 12.4.
For AGGATAAA [8-mer AGGATAAA], in series [9], the binding signal was 12.6.
For TGCATAAA [8-mer TGCATAAA], the binding signal in series [9] was 12.2.
Regarding GATAAATC [8-mer GATAAATC], the binding signal in [9] was 12.2.
On to GGATATAA [8-mer GGATATAA], for which the binding signal in series [9] is 12.3.
Turning to AGATAAAA [8-mer AGATAAAA], the binding signal in series [9] is 12.5.
Turning to GGATGAAA [8-mer GGATGAAA], the binding signal in series [9] was 11.5.
As to GGTGTAAA [8-mer GGTGTAAA], in series [9], the binding signal is 12.9.
AGATAAAT [8-mer AGATAAAT]: the binding signal in series [9] is 12.5.
As for AGGGATAA [8-mer AGGGATAA], in series [9], the binding signal is 12.2.
As to GGGATAAA [8-mer GGGATAAA], the binding signal in series [9] is 13.2.
As for AAGATAAA [8-mer AAGATAAA], the binding signal in series [9] was 12.2.
As to GTTTATAA [8-mer GTTTATAA], the binding signal in [9] is 12.3.
For GGCTAAAA [8-mer GGCTAAAA], the binding signal in [9] is 11.7.
For the sequence GGAATAAA [8-mer GGAATAAA], in [9], the binding signal is 12.7.
As for CTTTATGC [8-mer CTTTATGC], in series [9], the binding signal is 12.3.
In the case of ATTAATGC [8-mer ATTAATGC], the binding signal in series [9] is 12.3.
With TGGTATAA [8-mer TGGTATAA], in series [9], the binding signal was 12.2.
In the case of TAGATAAA [8-mer TAGATAAA], the binding signal in series [9] was 12.2.
As to GGGTATAA [8-mer GGGTATAA], the binding signal in series [9] is 12.4.
For the sequence GCATAAAC [8-mer GCATAAAC], the binding signal in series [9] is 12.6.
As for GAATAAAA [8-mer GAATAAAA], the binding signal in series [9] is 12.3.
On to CGGATAAC [8-mer CGGATAAC], for which the binding signal in [9] is 12.
In the case of AGGCATAA [8-mer AGGCATAA], the binding signal in [9] is 12.1.
For GGCATAAC [8-mer GGCATAAC], the binding signal in [9] was 12.
For GGGCATAA [8-mer GGGCATAA], in series [9], the binding signal is 12.3.
As to ATTTATCC [8-mer ATTTATCC], the binding signal in [9] was 13.
Regarding GGATAACC [8-mer GGATAACC], the binding signal in [9] was 11.8.
As for GAATAAAC [8-mer GAATAAAC], the binding signal in series [9] is 12.2.
Regarding GGTATAAC [8-mer GGTATAAC], the binding signal in series [9] was 12.2.
As for GGGGATAA [8-mer GGGGATAA], in [9], the binding signal is 12.3.
As to CGTTTATC [8-mer CGTTTATC], the binding signal in series [9] was 12.2.
On to TGGCATAA [8-mer TGGCATAA], for which, in [9], the binding signal is 12.2.
Turning to CCGGATAA [8-mer CCGGATAA], in [9], the binding signal is 12.2.
Turning to ATTTTATC [8-mer ATTTTATC], the binding signal in series [9] is 12.5.
On to GATTATCC [8-mer GATTATCC], for which the binding signal in [9] was 11.8.
Regarding AGCATAAA [8-mer AGCATAAA], the binding signal in series [9] was 12.6.
On to GGGAATAA [8-mer GGGAATAA], for which the binding signal in [9] was 12.2.
As to CGGATAAA [8-mer CGGATAAA], in series [9], the binding signal is 13.4.
Turning to AGGTATAA [8-mer AGGTATAA], in [9], the binding signal was 12.2.
As to GGATTAAA [8-mer GGATTAAA], the binding signal in series [9] is 12.9; in series [10], 11.5; in series [11], 9.65; in [12], 8.69; in series [13], 10.1.
Turning to ATTTATAC [8-mer ATTTATAC], the binding signal in series [9] is 12.9; in [8], 12.6.
On to GATTTATA [8-mer GATTTATA], for which the binding signal in series [9] is 12.2; in series [8], 12.1; in [5], 11.5.
Take GGTATAAA [8-mer GGTATAAA]: the figures for the binding signal in [9] and in [8] were 13.3 and 12.7, respectively.
For TATAAATA [8-mer TATAAATA], the binding signal in [9] is 12.2; in [8], 12.2; in series [5], 11.5.
As for GTATAAAC [8-mer GTATAAAC], the binding signal is 13.1 in [9] and 12.8 in series [8].
ATTAATCC [8-mer ATTAATCC]: the binding signal in series [9] was 12.5; in series [10], 11.9; in [11], 10.3; in series [12], 8.89; in series [13], 10.8.
